Laboratory results as given in the supplement of paper PMC8948288.
The sequences are guide strands of siRNAs; only the seed at positions 2 to 7 varies.

Legend:
[1] = system: GL261; assay: cell viability relative to siNT1 (ATP content); H4 human neuroglioma and GL261 mouse glioma; higher = less toxic; details: siRNA concentration 25 nM; 96 h; mouse
[2] = system: H4; assay: as above; details: siRNA concentration 10 nM; 96 h; human
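Further: cells reverse transfected with siRNA duplexes via lipid reagent, ATP read by luminescence, triplicate wells, values scaled to mean viability with non-targeting control siNT1.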

Row | Sequence | cell viability [1] [%] | cell viability [2] [%]
1 | UUCAGAAACAUGUAAACCA | 59.2 | 115
2 | UUCAGACACAUGUAAACCA | 16.5 | 57.8
3 | UUCAGAGACAUGUAAACCA | 49.9 | 79
4 | UUCAGAUACAUGUAAACCA | 47.3 | 75.5
5 | UUCAGCAACAUGUAAACCA | 34.1 | 54.8
6 | UUCAGCCACAUGUAAACCA | 17.8 | 45.2
7 | UUCAGCGACAUGUAAACCA | 38.7 | 109
8 | UUCAGCUACAUGUAAACCA | 13.8 | 59.6
9 | UUCAGGAACAUGUAAACCA | 40.4 | 99.5
10 | UUCAGGCACAUGUAAACCA | 24.4 | 59.3
11 | UUCAGGGACAUGUAAACCA | 19 | 89.6
12 | UUCAGGUACAUGUAAACCA | 21.1 | 84.3
13 | UUCAGUAACAUGUAAACCA | 44.3 | 89.9
14 | UUCAGUCACAUGUAAACCA | 29.6 | 103
15 | UUCAGUGACAUGUAAACCA | 44.4 | 87.3
16 | UUCAGUUACAUGUAAACCA | 26.4 | 53.4
17 | UUCAUAAACAUGUAAACCA | 36.1 | 106
18 | UUCAUACACAUGUAAACCA | 53.1 | 101
19 | UUCAUAGACAUGUAAACCA | 53.5 | 74.2
20 | UUCAUAUACAUGUAAACCA | 50.6 | 81.4
21 | UUCAUCAACAUGUAAACCA | 37.7 | 79.2
22 | UUCAUCCACAUGUAAACCA | 25.1 | 62.8

Row | Sequence | cell viability [1] [%] | cell viability [2] [%]
23 | UUCAUCGACAUGUAAACCA | 70.7 | 94.6
24 | UUCAUCUACAUGUAAACCA | 23.4 | 71.5
25 | UUCAUGAACAUGUAAACCA | 48.2 | 75.6
26 | UUCAUGCACAUGUAAACCA | 20.4 | 67.1
27 | UUCAUGGACAUGUAAACCA | 45.5 | 82.9
28 | UUCAUGUACAUGUAAACCA | 34 | 109
29 | UUCAUUAACAUGUAAACCA | 63.6 | 93.8
30 | UUCAUUCACAUGUAAACCA | 41 | 101
31 | UUCAUUGACAUGUAAACCA | 57.5 | 75
32 | UUCAUUUACAUGUAAACCA | 48.9 | 100
33 | UUCCAAAACAUGUAAACCA | 79.1 | 115
34 | UUCCAACACAUGUAAACCA | 61.6 | 84
35 | UUCCAAGACAUGUAAACCA | 77.9 | 74.6
36 | UUCCAAUACAUGUAAACCA | 69.2 | 87.1
37 | UUCCACAACAUGUAAACCA | 45.5 | 89.4
38 | UUCCACCACAUGUAAACCA | 31.1 | 57.3
39 | UUCCACGACAUGUAAACCA | 48.3 | 93.3
40 | UUCCACUACAUGUAAACCA | 53 | 69.9
41 | UUCCAGAACAUGUAAACCA | 43.4 | 89.9
42 | UUCCAGCACAUGUAAACCA | 26 | 41.8
43 | UUCCAGGACAUGUAAACCA | 39 | 70.1
44 | UUCCAGUACAUGUAAACCA | 41.5 | 67.9

Row | Sequence | cell viability [1] [%] | cell viability [2] [%]
45 | UUCCAUAACAUGUAAACCA | 31.2 | 110
46 | UUCCAUCACAUGUAAACCA | 45.2 | 68.8
47 | UUCCAUGACAUGUAAACCA | 37.2 | 91.4
48 | UUCCAUUACAUGUAAACCA | 31.8 | 118
49 | UUCCCAAACAUGUAAACCA | 45.8 | 92.4
50 | UUCCCACACAUGUAAACCA | 56 | 65.7
51 | UUCCCAGACAUGUAAACCA | 42.5 | 85.5
52 | UUCCCAUACAUGUAAACCA | 35.6 | 93.2
53 | UUCCCCAACAUGUAAACCA | 42.6 | 95.3
54 | UUCCCCCACAUGUAAACCA | 31 | 48.5
55 | UUCCCCGACAUGUAAACCA | 54.7 | 82.7
56 | UUCCCCUACAUGUAAACCA | 29.2 | 65.7
57 | UUCCCGAACAUGUAAACCA | 66.2 | 92.1
58 | UUCCCGCACAUGUAAACCA | 30.6 | 50
59 | UUCCCGGACAUGUAAACCA | 54.8 | 67.4
60 | UUCCCGUACAUGUAAACCA | 56.8 | 94
61 | UUCCCUAACAUGUAAACCA | 65.9 | 120
62 | UUCCCUCACAUGUAAACCA | 37.2 | 73.9
63 | UUCCCUGACAUGUAAACCA | 56.1 | 89.9
64 | UUCCCUUACAUGUAAACCA | 73.3 | 90.3
65 | UUCCGAAACAUGUAAACCA | 63 | 83.5
66 | UUCCGACACAUGUAAACCA | 39.2 | 90.6

Row | Sequence | cell viability [1] [%] | cell viability [2] [%]
67 | UUCCGAGACAUGUAAACCA | 55.2 | 110
68 | UUCCGAUACAUGUAAACCA | 54.9 | 88.7
69 | UUCCGCAACAUGUAAACCA | 44.6 | 114
70 | UUCCGCCACAUGUAAACCA | 20.6 | 77.5
71 | UUCCGCGACAUGUAAACCA | 51.3 | 94.5
72 | UUCCGCUACAUGUAAACCA | 32.3 | 69
73 | UUCCGGAACAUGUAAACCA | 50.8 | 86.6
74 | UUCCGGCACAUGUAAACCA | 17.4 | 44.4
75 | UUCCGGGACAUGUAAACCA | 27.9 | 100
76 | UUCCGGUACAUGUAAACCA | 34.2 | 40.8
77 | UUCCGUAACAUGUAAACCA | 51.6 | 93.9
78 | UUCCGUCACAUGUAAACCA | 32.9 | 99
79 | UUCCGUGACAUGUAAACCA | 57.2 | 81.6
80 | UUCCGUUACAUGUAAACCA | 28.7 | 110
81 | UUCCUAAACAUGUAAACCA | 51.6 | 118
82 | UUCCUACACAUGUAAACCA | 29.4 | 102
83 | UUCCUAGACAUGUAAACCA | 35 | 79.7
84 | UUCCUAUACAUGUAAACCA | 26.4 | 97.3
85 | UUCCUCAACAUGUAAACCA | 42.1 | 85.3
86 | UUCCUCCACAUGUAAACCA | 31.5 | 43.3
